Among the data in the supplement of paper PMC4604168 (melanoma cell lines) are cell count values, retold here.

Each structure is given as a SMILES string. This is one part of the list. Most values come without repeats; read them as rough.
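Further: cells treated in 1,536-well plates, then fixed and DAPI-stained, with nuclei counted from automated high-throughput microscope images.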

The assay has as its system 501Mel. Briefly: cell count relative to DMSO control; melanoma cells; higher = more viable cells. The note with it: library dose: standard library concentration; 72 h.
As to `CN(c1ncccc1CNc1nc(Nc2ccc3c(c2)CC(=O)N3)ncc1C(F)(F)F)S(C)(=O)=O` + CCCCCCCCCCCC1=C(O)C(=O)C=C(O)C1=O [Embelin] (first compound 0.4 µM, partner dose 6 µM), the cell count was determined as 72%.
For `CN(c1ncccc1CNc1nc(Nc2ccc3c(c2)CC(=O)N3)ncc1C(F)(F)F)S(C)(=O)=O` + COc1cc2ncnc(Nc3ccc(Oc4ccccc4)cc3)c2cc1OC [SrcI1] (first compound 0.4 µM, partner dose 10 µM), the cell count turned out to be 67.9%.
In turn, `CS(=O)(=O)c1ccc(C(=O)Nc2ccc(Cl)c(-c3ccccn3)c2)c(Cl)c1` [vismodegib] + CCN(CC)CCCCNc1ncc2cc(-c3cc(OC)cc(OC)c3)c(NC(=O)NC(C)(C)C)nc2n1 [PD173074] (first compound 5 µM, partner dose 0.5 µM) gave a cell count of 115%.
The value for `NC1(c2ccc(-c3nc4ccn5c(=O)[nH]nc5c4cc3-c3ccccc3)cc2)CCC1` + CCN(CC)CCCCNc1ncc2cc(-c3cc(OC)cc(OC)c3)c(NC(=O)NC(C)(C)C)nc2n1 [PD173074] (first compound 2 µM, partner dose 0.5 µM) was 114%.
The value for `CN(c1ncccc1CNc1nc(Nc2ccc3c(c2)CC(=O)N3)ncc1C(F)(F)F)S(C)(=O)=O` + O=C(O)C(=O)Nc1sc2c(c1C(=O)O)CCNC2 [TCS401] (first compound 0.4 µM, partner dose 8.33333 µM) was 78.1%; that for `CN(c1ncccc1CNc1nc(Nc2ccc3c(c2)CC(=O)N3)ncc1C(F)(F)F)S(C)(=O)=O` + COc1ccc(COc2ccc(Cc3cnc(N)nc3N)cc2OC)cc1 [GW2580] (first compound 0.4 µM, partner dose 5 µM) was 88.4%.
`CN(c1ncccc1CNc1nc(Nc2ccc3c(c2)CC(=O)N3)ncc1C(F)(F)F)S(C)(=O)=O` + CCN(CC)CCCCNc1ncc2cc(-c3cc(OC)cc(OC)c3)c(NC(=O)NC(C)(C)C)nc2n1 [PD173074] (first compound 0.4 µM, partner dose 0.5 µM): the cell count is 56.2%.
The value for `NC1(c2ccc(-c3nc4ccn5c(=O)[nH]nc5c4cc3-c3ccccc3)cc2)CCC1` + c1cc(-c2cnn3cc(-c4ccc(OCCN5CCCCC5)cc4)cnc23)ccn1 [Dorsomorphin] (first compound 2 µM, partner dose 2 µM) was 48.1%.
Compound `C=C(c1ccc(C(=O)O)cc1)c1cc2c(cc1C)C(C)(C)CCC2(C)C` [Bexarotene] + c1cc(-c2cnn3cc(-c4ccc(OCCN5CCCCC5)cc4)cnc23)ccn1 [Dorsomorphin] (first compound 10 µM, partner dose 2 µM) had a cell count of 56.4%.
The value for `CS(=O)(=O)c1ccc(C(=O)Nc2ccc(Cl)c(-c3ccccn3)c2)c(Cl)c1` [vismodegib] + O=C(O)C(=O)Nc1sc2c(c1C(=O)O)CCNC2 [TCS401] (first compound 5 µM, partner dose 8.33333 µM) was 90.5%.
The value for `CN(c1ncccc1CNc1nc(Nc2ccc3c(c2)CC(=O)N3)ncc1C(F)(F)F)S(C)(=O)=O` + N#Cc1c(O)c2c(-c3ccc(-c4ccccc4O)cc3)csc2[nH]c1=O [A769662] (first compound 0.4 µM, partner dose 10 µM) was 98.2%; that for `CN(c1ncccc1CNc1nc(Nc2ccc3c(c2)CC(=O)N3)ncc1C(F)(F)F)S(C)(=O)=O` + O=S(=O)(c1ccccc1)N(CC(F)(F)F)c1ccc(C(O)(C(F)(F)F)C(F)(F)F)cc1 [T0901317] (first compound 0.4 µM, partner dose 7 µM) was 48.2%; that for `C=C(c1ccc(C(=O)O)cc1)c1cc2c(cc1C)C(C)(C)CCC2(C)C` [Bexarotene] + COc1ccc(COc2ccc(Cc3cnc(N)nc3N)cc2OC)cc1 [GW2580] (first compound 10 µM, partner dose 5 µM) was 90.8%.
